Experimental findings from the antibiotic and cytotoxicity screens of Wong et al. (2023) are described below.

Some of the results follow.

The experiment deals with HSkMC (human skeletal muscle cells). As to the kind of experiment: cytotoxicity call (relative viability < 0.9). The note with it: 10 µM.
For the molecule `Cn1c(=O)c2c(nc(Sc3nnc(N)s3)n2C)n(C)c1=O`, the cytotoxicity call was “inactive”. Under `CNc1nc(N2CCCC2)nc(N)c1[N+](=O)[O-]` stands “inactive”; under `C[C@@H]1CCCCO[C@H](CN(C)C(=O)c2ccccc2)[C@@H](C)CN([C@H](C)CO)C(=O)c2cc(NC(=O)Cc3ccccc3)ccc2O1`, “inactive”; under `C[C@@H]1CN([C@@H](C)CO)C(=O)c2cc(C#Cc3cccc(F)c3)cnc2O[C@H]1CN(C)C(=O)C1CCOCC1`, “inactive”. To `C[C@H](CO)N1C[C@H](C)[C@@H](CN(C)S(=O)(=O)c2ccc(Cl)cc2)Oc2ccc(N(C)C)cc2C1=O` belongs “inactive”. For `COc1ccc(CN(C)C[C@@H]2OCCCC[C@H](C)Oc3ccc(NS(=O)(=O)c4ccc(F)cc4)cc3C(=O)N([C@@H](C)CO)C[C@H]2C)cc1`, the cytotoxicity call was “inactive”. Consider `c1cc(CNC2CCCC2)cs1`, for which the cytotoxicity call is “inactive”. Consider `COc1ccc(NC(=O)N(C)C[C@H]2Oc3ccc(NC(=O)Cn4cnnn4)cc3C(=O)N([C@@H](C)CO)C[C@H]2C)cc1`, for which the cytotoxicity call is “inactive”. Consider `CN1CCN(C(=O)C[C@H]2CC[C@@H](NC(=O)Cc3ccccn3)[C@H](CO)O2)CC1`, for which the cytotoxicity call was “inactive”. To `CN(C)CCN1CCN(C)C2(CCN(S(=O)(=O)C3CC3)CC2)C1=O` belongs “inactive”; to `Cc1noc(C)c1NC(=O)N(C)C[C@@H]1Oc2ccc(NS(=O)(=O)c3c(C)noc3C)cc2C(=O)N([C@@H](C)CO)C[C@H]1C`, “inactive”. Consider `COc1ccc(NC(=O)Nc2ccc3c(c2)CC(=O)N([C@H](C)CO)C[C@@H](C)[C@@H](CN(C)S(=O)(=O)c2cn(C)cn2)O3)cc1`, for which the cytotoxicity call is “inactive”. With `COc1ccc(NC(=O)Nc2ccc3c(c2)C(=O)N([C@H](C)CO)C[C@@H](C)[C@@H](CN(C)Cc2ccc4c(c2)OCO4)OCCCC[C@H](C)O3)cc1`, the cytotoxicity call was “inactive”.

On to `CC(C)CC#Cc1cnc2c(c1)C(=O)N([C@H](C)CO)C[C@H](C)[C@@H](CN(C)C(=O)c1ccc3c(c1)OCO3)O2`, for which the cytotoxicity call was “inactive”.

Regarding `CN1CCN(C(=O)C[C@@H]2CC[C@H](NC(=O)c3ccc4c(c3)OCO4)[C@H](CO)O2)CC1`, the cytotoxicity call is “inactive”. On to `C[C@@H]1CN([C@H](C)CO)C(=O)c2cc(NC(=O)Cn3cnnn3)ccc2O[C@@H]1CN(C)Cc1ccc(C(=O)O)cc1`, for which the cytotoxicity call was “inactive”. For `C[C@@H]1CCCCO[C@H](CN(C)C(=O)Nc2ccc(F)cc2)[C@@H](C)CN([C@@H](C)CO)C(=O)c2cc(NC(=O)CCC(F)(F)F)ccc2O1`, the cytotoxicity call is “inactive”. To `C[C@@H]1CCCCO[C@@H](CN(C)Cc2ccc(C(=O)O)cc2)[C@@H](C)CN([C@H](C)CO)C(=O)c2cc(NC(=O)Nc3ccc4c(c3)OCO4)ccc2O1` belongs “inactive”. Turning to `CN(C)CCCNC(=O)C[C@H]1CC[C@@H]2[C@H](COc3ccc(NS(C)(=O)=O)cc3C(=O)N2C)O1`, the cytotoxicity call is “inactive”. With `CC(C)NC(=O)Nc1ccc2c(c1)C(=O)N([C@@H](C)CO)C[C@H](C)[C@@H](CN(C)S(=O)(=O)c1ccccc1)O2`, the cytotoxicity call was “inactive”. To `CO[C@@H](CNS(C)(=O)=O)c1ccsc1` belongs “inactive”.

As to `CO[C@H]1O[C@H](CO)[C@@H](OC(=O)Nc2ccccc2-c2ccccc2)[C@H](OC(=O)Nc2ccc3c(c2)OCO3)[C@@H]1OC(=O)Nc1ccc2c(c1)OCO2`, the cytotoxicity call is “inactive”. Under `C[C@H](CO)N1C[C@H](C)[C@@H](CN(C)S(=O)(=O)c2ccc(F)cc2)Oc2ccc(NS(=O)(=O)c3ccc(F)cc3)cc2C1=O` stands “inactive”. Under `Cc1ccc(S(=O)(=O)Nc2ccc3c(c2)C(=O)N([C@H](C)CO)C[C@@H](C)[C@@H](CN(C)S(=O)(=O)c2ccc(F)cc2)OCCCC[C@@H](C)O3)cc1` stands “inactive”; under `C[C@@H]1CCCCO[C@@H](CN(C)C(=O)Nc2ccccc2)[C@H](C)CN([C@@H](C)CO)C(=O)c2cc(NC(=O)c3ccncc3)ccc2O1`, “inactive”. As to `C[C@@H]1CN([C@H](C)CO)C(=O)c2cc(NS(=O)(=O)c3cn(C)cn3)ccc2O[C@@H]1CN(C)Cc1ccc(C(=O)Nc2ccccc2N)cc1`, the cytotoxicity call was “inactive”. Under `COc1ccc(NC(=O)Nc2ccc3c(c2)C(=O)N([C@H](C)CO)C[C@H](C)[C@@H](CN(C)C(=O)Nc2cccc4ccccc24)OCCCC[C@@H](C)O3)cc1` stands “inactive”; under `Cc1ccc(S[C@]2(C(=O)NCc3ccccc3)CC(=O)N(Cc3ccccc3)[C@@H]2c2ccc(COC(=O)NCCCCCC(=O)NO)cc2I)cc1`, “inactive”. For `Cc1ccc(S(=O)(=O)Nc2cccc3c2O[C@@H](CN(C)Cc2ccc(-c4ccccc4)cc2)[C@@H](C)CN([C@@H](C)CO)C3=O)cc1`, the cytotoxicity call is “inactive”.

As for `Cc1noc(C)c1S(=O)(=O)Nc1ccc2c(c1)C(=O)N([C@@H](C)CO)C[C@H](C)[C@@H](CN(C)C(=O)Nc1ccccc1)OCCCC[C@H](C)O2`, the cytotoxicity call was “inactive”. Under `OCC(O)C(O)C(O)C(O)C(O)CO` (stereo not given) stands “inactive”; under `C[C@@H]1CN([C@@H](C)CO)C(=O)c2cc(NC(=O)Nc3ccc(C(F)(F)F)cc3)ccc2O[C@@H]1CN(C)Cc1ccccc1`, “active”; under `CC(C)NC(=O)Nc1ccc2c(c1)C(=O)N([C@H](C)CO)C[C@H](C)[C@@H](CN(C)S(=O)(=O)c1cccs1)O2`, “inactive”. On to `C[C@H](C(=O)N(C)C[C@H]1OCc2ccccc2-c2c(n(C)c3ccccc23)C(=O)N([C@@H](C)CO)C[C@@H]1C)c1ccccc1`, for which the cytotoxicity call was “inactive”.

As for `O=C(C[C@H]1C[C@H]2c3cc(NC(=O)Nc4ccccc4)ccc3O[C@H]2[C@@H](CO)O1)NCCN1CCCCC1`, the cytotoxicity call was “inactive”.

In the case of `CN1C[C@H](O)COC[C@H]2O[C@H](CC(=O)N3CCN(c4ccccc4)CC3)CC[C@@H]21`, the cytotoxicity call is “inactive”. To `C[C@H](CO)N1C[C@H](C)[C@H](CN(C)S(=O)(=O)c2ccccc2F)Oc2ncc(C#Cc3ccncc3)cc2C1=O` belongs “inactive”. Under `C[C@H]1CN([C@@H](C)CO)C(=O)Cc2cc(NC(=O)CCCN(C)C)ccc2O[C@@H]1CN(C)S(=O)(=O)c1ccccc1` stands “inactive”.

In the case of `C[C@H]1CCCCO[C@H](CN(C)S(=O)(=O)c2cccs2)[C@@H](C)CN([C@@H](C)CO)C(=O)c2cc(NC(=O)Nc3cccc4ccccc34)ccc2O1`, the cytotoxicity call was “inactive”. Turning to `C[C@@H]1CN([C@@H](C)CO)C(=O)c2cccc(NS(=O)(=O)c3ccc(Cl)cc3)c2O[C@H]1CN(C)Cc1ccc(C(F)(F)F)cc1`, the cytotoxicity call was “inactive”.
